# Laboratory results: patent US20250109201A1 (AGENUS, published 2025)
# Key:
# [1] = molecular target: T1, ECD-His tagged human ILT2 haplotype PE01 (human, UniProt Q8NHL6 24-458); experiment: SPR, ILT2 PE01 ECD-His, average of two measurements
# T1 construct: also called Human ILT2 PE01 ECD; LILRB1/ILT2 PE01; not shown: His tag
# Protocol: (§1) Briefly, SPR experiments were performed using a Biacore T200 instrument, and the association rate (Kₐ), dissociation rate (Kd), and dissociation constant (KD) were calculated from each experiment using a 1:1 binding model with Biacore™ T200 Evaluation Software. Capture of antibodies from the Human Fab Capture kit (28958325, GE Healthcare) to the Series S CM5 sensor chip (29149603, GE Healthcare) was performed using the immobilization wizard for amine coupling from the Biacore™ control panel and following the manufacturer's recommendations included with the kit.
# Variants of irrelevant antibody VRC01 (with IgG1, IgG1 N297A, IgG4 S228P, IgG2, or IgG2 C127S constant regions) were used as negative isotype controls. The binding kinetics are shown in Table 5 as an average from two independent measurements.
# [2] = molecular target: T1, ECD-His tagged human ILT2 haplotype PE01; experiment: SPR, captured antibody, ILT2 ECD-His analyte
# T1 sequence (Q8NHL6 24-458): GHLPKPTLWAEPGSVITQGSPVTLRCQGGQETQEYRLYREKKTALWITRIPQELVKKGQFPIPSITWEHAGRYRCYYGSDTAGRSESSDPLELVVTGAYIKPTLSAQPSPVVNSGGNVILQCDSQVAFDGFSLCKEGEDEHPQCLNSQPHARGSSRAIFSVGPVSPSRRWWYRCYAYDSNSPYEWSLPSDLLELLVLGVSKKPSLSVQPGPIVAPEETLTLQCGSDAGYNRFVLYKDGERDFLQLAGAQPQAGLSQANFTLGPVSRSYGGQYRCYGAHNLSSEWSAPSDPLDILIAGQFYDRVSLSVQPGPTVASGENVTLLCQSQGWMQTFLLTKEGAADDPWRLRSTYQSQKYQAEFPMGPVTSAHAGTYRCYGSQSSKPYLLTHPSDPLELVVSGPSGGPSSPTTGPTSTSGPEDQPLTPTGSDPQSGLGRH
# Protocol: (§2) The binding affinity of anti-ILT2 antibody variants with IgG1 N297A constant regions to ECD-His tagged human ILT2 haplotypes PE01, PE02, PE03 (see Table 1) was assessed by surface plasmon resonance (SPR).
# as §1
# (§3) Approximately 3 μg/mL of tested anti-ILT2 antibodies and controls diluted in a running buffer (10 mM HEPES, 150 mM NaCl, 3 mM EDTA, and 0.05% surfactant P20) were captured in individual flow cells of previously prepared anti Human Fab CM5 chip, keeping a single flow cell as a reference. Antibodies were captured using a 30 sec injection at a flow rate of 10 μL/min to reach about 150 resonance units (Rus). Human ILT2 ECD PE01 (diluted in the running buffer at the concentration of 30, 10, 3.3, 1.11, 0.37, 0.12 nM), and human ILT2 ECD PE02 and PE03 (diluted in the running buffer at the concentration of 33.3, 11.1, 3.7, 1.2, 0.41, 0.14 nM), were flowed over the chip surface at a flow rate of 30 μL/min with a 3-min association phase and a 10-min dissociation phase. The sensor chip was regenerated between cycles with a double 30-sec injection of 10 mM glycine, pH 2.1 at 30 μL/min followed by stabilization period of 60s. Sensorgrams were evaluated and fit to a simple Langmuir 1:1 interaction model using the global data analysis option of BIAevaluation 3.1 software. Data quality was verified by visually inspecting deviations and curve fitting, and by evaluating the parameters of Rₘₐₓ, Chi2, and Tc.
# [3] = molecular target: T2, ECD-His tagged human ILT2 haplotype PE02 (human, UniProt Q8NHL6 24-458); experiment: SPR, captured antibody, ILT2 ECD-His analyte
# T2 construct: also called Human ILT2 PE02 ECD; not shown: His tag
# Protocol: as §2, §1, §3
# [4] = molecular target: T3, ECD-His tagged human ILT2 haplotype PE03 (human, UniProt Q8NHL6 24-458); experiment: SPR, captured antibody, ILT2 ECD-His analyte
# T3 construct: also called Human ILT2 PE03 ECD (Sino biological, 16014-H08H); not shown: His tag
# Protocol: as §2, §1, §3
# [5] = molecular target: T4, human ILT2 extracellular and transmembrane domains expressed on CHO cells (human, UniProt Q8NHL6 24-482, limits assumed); experiment: flow cytometry, CHO cells with low human ILT2
# T4 construct: domain: extracellular and transmembrane domains; which one is told under assay; also called CHO cells expressing human ILT2 (relatively low or relatively high level); CHO-ILT2 cells
# Protocol: For the antibody binding assay, the cells were seeded in a 96-well U-bottom tissue culture plate at a density of 3×10⁵ cells per well in 25 μL of PBS supplemented with 0.5% BSA, 1 mM EDTA and 0.05% sodium azide (FACS Buffer). The cells were incubated for 30 minutes at 4° C. with 25 μL of a series dilution of anti-ILT2 antibodies or isotype control, at final concentrations ranging from 10 μg/mL to 0.2 ng/mL in FACS Buffer.
# After a 30-minute incubation in the dark at 4° C., the cells were washed twice with cold FACS Buffer, and the cells were analyzed by flow cytometry (BD LSR Fortessa Flow Cytometer). CHO cells were identified using a plot of forward scatter-area (FSC-A) versus side scatter area (SSC-A) and another plot of FSC-A versus forward scatter-height (FSC-H) for selection of single cells. Samples were analyzed by sequentially gating on the single cell population and plotting histograms representing the fluorescence in the PE channel. For each sample, mean fluorescence intensity (MFI) was calculated, and the data were plotted by GraphPad Prism software.
# [6] = molecular target: T5, full-length ILT2 expressed on Jurkat cells (human, UniProt Q8NHL6 24-650); experiment: flow cytometry, Jurkat cells expressing human ILT2
# T5 construct: whole, on cells; The Jurkat line also carries FcgRIIIa and an NFAT-luciferase reporter (Promega/G7102); also called Jurkat cells expressing human ILT2; ILT2-expressing Jurkat reporter cells
# [7] = molecular target: T4, human ILT2 extracellular and …; experiment: flow cytometry, blocking of HLA-G-Fc-PE on CHO cells with high human ILT2
# Protocol: Samples were analyzed by sequentially gating on the single cell population and plotting histograms representing the fluorescence in the PE channel.
Kd [1],koff [1],kon [1],Kd [2],koff [2],kon [2],Kd [3],koff [3],kon [3],Kd [4],koff [4],kon [4],AUC [5],EC50 [5],AUC [6],EC50 [6],IC50 [7],Binder
0.15 nM,8.9e-05 s⁻¹,710000 M⁻¹ s⁻¹,–,–,–,–,–,–,–,–,–,–,–,–,–,–,"BA210 (antibody, human IgG1, kappa) heavy: QVQLVQSGAEVKKPGASVKVSCKASGYTFNRYYMHWVRQAPGQGLEWMGWINPYTGGTNYAQKFQGRVTMTRDTSISTAYMELSRLRSDDTAVYYCASKQPSSDYWGQGTLVTVSSASTKGPSVFPLAPSSKSTSGGTAALGCLVKDYFPEPVTVSWNSGALTSGVHTFPAVLQSSGLYSLSSVVTVPSSSLGTQTYICNVNHKPSNTKVDKRV[letters of human IgG1 Fc omitted] light: not shown"
0.22 nM,8.3e-05 s⁻¹,410000 M⁻¹ s⁻¹,–,–,–,–,–,–,–,–,–,–,–,–,–,–,"BA248 (antibody, human IgG4 S228P, kappa) heavy: QVQLVQSGAEVKKPGASVKVSCKASGYTFNRYYMHWVRQAPGQGLEWMGWINPYTGGTNYAQKFQGRVTMTRDTSISTAYMELSRLRSDDTAVYYCASKQPSSDYWGQGTLVTVSSASTKGPSVFPLAPCSRSTSESTAALGCLVKDYFPEPVTVSWNSGALTSGVHTFPAVLQSSGLYSLSSVVTVPSSSLGTKTYTCNVDHKPSNTKVDKRV[letters of human IgG4 Fc with S228P (EU numbers) omitted] light: not shown"
0.15 nM,5.6e-05 s⁻¹,370000 M⁻¹ s⁻¹,0.099 nM,3.4e-05 s⁻¹,340000 M⁻¹ s⁻¹,0.671 nM,0.00017 s⁻¹,260000 M⁻¹ s⁻¹,0.929 nM,0.00025 s⁻¹,270000 M⁻¹ s⁻¹,13300,0.123 µg/mL,226000,0.059 µg/mL,0.159 µg/mL,"BA211 (antibody, human IgG1, kappa) heavy: QVQLVQSGAEVKKPGASVKVSCKASGYTFNRYYMHWVRQAPGQGLEWMGWINPYTGGTNYAQKFQGRVTMTRDTSISTAYMELSRLRSDDTAVYYCASKQPSSDYWGQGTLVTVSSASTKGPSVFPLAPSSKSTSGGTAALGCLVKDYFPEPVTVSWNSGALTSGVHTFPAVLQSSGLYSLSSVVTVPSSSLGTQTYICNVNHKPSNTKVDKRV[letters of human IgG1 Fc with changes omitted] light: not shown"
